Experimental data: PMC4336329 (PLoS ONE, 2015)
Screen size: about 310,000 compounds; about 2,200 (0.71%) showed an effect of 50% or more. Effects have a minus sign here. Some of the results follow.

target: human ether-à-go-go-related gene (hERG) potassium channel (human, UniProt Q12809); assay: primary screen, population patch clamp on CHO cells stably expressing hERG
Sequence (Q12809 whole entry, looked up): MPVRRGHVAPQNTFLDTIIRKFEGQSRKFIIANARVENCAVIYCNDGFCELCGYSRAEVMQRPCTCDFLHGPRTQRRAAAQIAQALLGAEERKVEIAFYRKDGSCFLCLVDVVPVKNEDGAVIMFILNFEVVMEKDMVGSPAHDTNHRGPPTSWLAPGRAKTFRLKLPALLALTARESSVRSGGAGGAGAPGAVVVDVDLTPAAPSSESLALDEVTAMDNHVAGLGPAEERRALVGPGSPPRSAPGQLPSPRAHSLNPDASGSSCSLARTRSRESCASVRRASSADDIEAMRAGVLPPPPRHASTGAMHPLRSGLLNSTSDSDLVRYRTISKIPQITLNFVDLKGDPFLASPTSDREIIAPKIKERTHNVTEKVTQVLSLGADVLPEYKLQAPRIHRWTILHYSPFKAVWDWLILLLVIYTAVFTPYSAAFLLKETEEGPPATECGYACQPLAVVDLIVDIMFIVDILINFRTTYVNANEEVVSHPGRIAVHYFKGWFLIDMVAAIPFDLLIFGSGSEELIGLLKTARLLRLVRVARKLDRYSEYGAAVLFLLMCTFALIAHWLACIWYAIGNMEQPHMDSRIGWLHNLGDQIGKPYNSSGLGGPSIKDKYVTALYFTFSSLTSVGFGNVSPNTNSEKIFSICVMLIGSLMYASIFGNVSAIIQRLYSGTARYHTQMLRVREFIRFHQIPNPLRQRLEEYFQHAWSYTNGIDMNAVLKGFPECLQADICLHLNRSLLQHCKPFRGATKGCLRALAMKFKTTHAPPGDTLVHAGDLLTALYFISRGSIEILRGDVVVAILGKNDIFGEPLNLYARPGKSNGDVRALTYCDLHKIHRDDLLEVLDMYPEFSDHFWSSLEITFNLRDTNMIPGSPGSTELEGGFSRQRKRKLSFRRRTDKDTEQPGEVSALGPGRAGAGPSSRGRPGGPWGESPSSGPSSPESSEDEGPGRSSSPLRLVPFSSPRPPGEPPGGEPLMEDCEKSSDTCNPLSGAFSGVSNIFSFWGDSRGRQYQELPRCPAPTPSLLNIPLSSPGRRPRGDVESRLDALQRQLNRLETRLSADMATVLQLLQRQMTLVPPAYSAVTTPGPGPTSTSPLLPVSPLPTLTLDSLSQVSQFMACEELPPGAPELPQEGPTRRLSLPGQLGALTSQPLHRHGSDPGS

| Compound | hERG current change (%, negative = inhibition) at 1uM |
| --- | --- |
| O=C(Nc1ccccc1)OCCNC(=O)c1cccc(Cl)c1 | 12.1% |
| O=C(CCCn1c(=O)[nH]c2ccccc2c1=O)NCCSCc1ccccc1 | 8.61% |
| Cc1ccc(S(=O)(=O)N[C@@H](C)C(=O)N2CCC(C(=O)N3CCC[C@H]3C(=O)O)CC2)cc1 | 12.9% |
| CCc1c(C)c(C#N)c2nc3ccccc3n2c1NCCN(C)C | 1.43% |
| COCCNC(=O)c1nc2c(nnn2Cc2cc(C)ccc2C)c(=O)[nH]1 | 15% |
| COc1cccc(NC(=O)CN(C)C(=O)CCCc2c[nH]c3ccccc23)c1 | 9.56% |
| CCN1C(=O)C(CC(=O)Nc2ccc(Br)cc2)N(CCCc2ccccc2)C1=S (stereo not shown) | 16.2% |
| COc1ccc(OC)c(N(CC(=O)Nc2ccccc2F)S(=O)(=O)c2ccccc2)c1 | 4.9% |
| O=S(=O)(NC(=NCc1ccccc1)c1ccccc1F)c1ccccc1 | 4.29% |
| CCOC(=O)c1c(N2C(=O)Nc3ccccc3N2O)n[nH]c1-c1cccc(OC)c1 | 10% |
| CCOc1ccccc1N(C(=O)c1snc(C(N)=O)c1N)C(C(=O)NC1CCCC1)c1ccco1 (stereo not shown) | -8.25% |
| O=C(CCc1ccccc1)Nc1nc2nc(-c3ccccc3)cc(=O)n2[nH]1 | 11.9% |
| O=C1N/C(=C/c2ccc(N3CCOCC3)o2)C(=O)N1c1cccc(Cl)c1 | 6.87% |
| O=C(NCC1CCCCC1)c1cc([N+](=O)[O-])ccc1N1CCOCC1 | -1.47% |
| O=S(=O)(c1cccc(COc2ccc(Cl)cc2Cl)c1)N1CCOCC1 | 5.31% |
| COc1ccccc1CNC(=O)c1cc(S(=O)(=O)N2CCOCC2)cn1C | 4.84% |
| O=C(NCC1CCCN1S(=O)(=O)c1cccs1)c1ccc([N+](=O)[O-])cc1 (stereo not shown) | -0.873% |
| Cc1ccc(N2CC(NC(=O)N3CCN(C(=O)c4ccco4)CC3)CC2=O)cc1 (stereo not shown) | -5.94% |
| COC(=O)c1ccc(CSc2nnc(CS(=O)Cc3ccc(Br)cc3)n2-c2ccccc2)cc1 (stereo not shown) | 4.22% |
| CCN(Cc1ccccc1)C(=O)c1cc(S(=O)(=O)N2CCOCC2)cn1C | 16.4% |
| CC1CN(c2ncnc3c2cnn3-c2ccc(Cl)cc2)CC(C)O1 (stereo not shown) | 3.56% |
| COc1ccc(N2C(=O)NC(NC(=O)c3cccnc3)(C(F)(F)F)C2=O)cc1 (stereo not shown) | 16.6% |

| Compound | hERG current change (%, negative = inhibition) at 1uM |
| --- | --- |
| CCCn1c(=N)n(CC(=O)c2cccs2)c2ccccc21 | -2.14% |
| COc1cc(-c2nc3ccccn3c2NCc2ccccc2)ccc1SC1CCCCC1.O=C(O)C(F)(F)F | 9.85% |
| COC(=O)c1ccc(CSc2nnc(NC(=O)c3cc4c(s3)CCCC4)s2)cc1 | 7.36% |
| Cc1ccc(-n2c(C)nnc2SCC(=O)N(C)C2CCS(=O)(=O)C2)cc1 (stereo not shown) | 15.8% |
| O=C(NC(=S)N1CCc2ccccc21)c1ccccc1 | 8.35% |
| CCOC(=O)CNC(=O)CSc1nccn1Cc1ccco1 | 10.9% |
| COc1cc(C)c(NC(=O)C2CCN(S(=O)(=O)c3cccs3)CC2)cc1OC | -9.17% |
| Cn1c(C2=C(O)CN(c3ccc4c(c3)OCCO4)C2=N)nc2ccccc21 | -1.57% |
| CSc1sc(-c2ccnc(SCCS(C)(=O)=O)n2)c(-c2ccccc2)c1C#N | 4.72% |
| Cc1cc(C)cc(C(=O)NCC(=O)NCc2ccc(S(N)(=O)=O)cc2)c1 | 6.79% |
| O=C(CSc1nnnn1-c1ccc(Cl)cc1)NNC(=O)c1ccc([N+](=O)[O-])cc1 | -9.45% |
| CCN1C(=O)c2cccc3c(NC(=O)c4ccc(S(=O)(=O)N(C)C)cc4)ccc1c23 | -6.2% |
| COc1ccc(OC)c2c(C)cc(N3CCCN(C)CC3)nc12 | 11% |
| O=C(NC1CCCC1)C1CCC(CNS(=O)(=O)c2ccccc2)CC1 (stereo not shown) | 15.9% |
| C=CCn1c(COc2ccccc2)nnc1SC(C)C(=O)N/N=C/c1cc(Cl)ccc1O (stereo not shown) | 7.57% |
| Cc1ccc2c(C(=O)CN3CCSCC3)c(C)[nH]c2c1 | 14.4% |
| CC(C)C1COC(c2cccn2Cc2ccccc2Cl)=N1 (stereo not shown) | 11.9% |
| COc1ccc(C(=O)N2CCN(S(=O)(=O)c3ccccc3)CC2)c(OC)c1 | -8.79% |
| CCCNC(=O)Cn1c(=O)/c(=C\c2ccc(-c3ccc([N+](=O)[O-])cc3)o2)s/c1=C\C(=O)C(C)(C)C | 2.2% |
| Cc1cc(Nc2ccc(C(=O)N3CCCCC3)cc2)c2cccc(C)c2n1 | 1.48% |
| Cc1ccc(NC2CCCN(C(=O)c3cnc4ccccn4c3=O)C2)cc1C (stereo not shown) | 5.56% |
